Values marked as one replicate rest on one cluster of the flow cell; about a third of the high ones do not repeat.
Tested on: ATP
Assay: switch fluorescence ratio, 500 uM ATP over buffer (Cy3 cluster intensity, sum of 5 cycles each) (fold (ratio)); higher = stronger signal-on switching upon ATP binding; sequences stand for … in TCGTCGGCAGCGTCAGATGTGTATAAGAGACAGTTTTTTTTTTTTTTTTTTTTTTTTT…TC
Details: aptamer strand: ATP DNA aptamer (quencher-CACCTGGGGGAGTATTGCGGAGGAAGG + anchor), 100 nM annealed; ATP concentration: 500 uM; one replicate
Outline: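 Between each of five buffer/ATP cycles, the flow-cell was stripped with NaOH and re-annealed. Each cycle imaged Cy3-labelled switching-strand clusters, annealed to 100 nM quencher-labelled ATP aptamer on a modified Illumina MiSeq flow-cell, first in selection buffer and then after 15 min with 500 uM ATP at 22 °C. The fluorescence ratio is summed target-cycle over summed buffer-cycle Cy3 intensity per cluster, averaged per switch-domain sequence, with clusters outside 100-1000 RFU excluded.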
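Further: ATP exposure 15 min at 22 °C before imaging.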

Row | Sequence | switch fluorescence ratio
1 | TCGTCTCCA | 1
2 | TCGTCTCCAT | 0.972
3 | TCGTCTCTAT | 0.968
4 | TCGTCTTGGG | 1.01
5 | TCGTGAATGC | 1.94
6 | TCGTGAGCGT | 1.7
7 | TCGTGAGTTG | 0.975
8 | TCGTGATCTT | 1.01
9 | TCGTGCGAGG | 0.995
10 | TCGTGGCTCA | 1.01
11 | TCGTGGGAAT | 0.996
12 | TCGTGGTCAT | 0.989
13 | TCGTGGTCCG | 0.948
14 | TCGTGGTTTG | 0.997
15 | TCGTGTACAG | 0.946
16 | TCGTGTACAT | 0.991
17 | TCGTGTCTAT | 1.05
18 | TCGTGTGTT | 0.964
19 | TCGTTATTA | 0.978
20 | TCGTTATTAG | 1.02
21 | TCGTTCCCGG | 1.2
22 | TCGTTGACTC | 1.04
23 | TCGTTGGATA | 1.29
24 | TCGTTGGGGC | 0.981
25 | TCGTTGGTGC | 1.05
26 | TCGTTGTGC | 1.06

Row | Sequence | switch fluorescence ratio
27 | TCGTTGTT | 0.972
28 | TCGTTTACCT | 1.09
29 | TCTAACACAA | 1.13
30 | TCTAAGAAAT | 0.97
31 | TCTAAGACTT | 0.972
32 | TCTAATAAT | 0.964
33 | TCTAATATCT | 1.02
34 | TCTAATATGC | 1.06
35 | TCTAATCAAT | 1.04
36 | TCTAATGCTT | 0.95
37 | TCTAATTCTA | 0.98
38 | TCTACACTAT | 1.04
39 | TCTACCTTGT | 1.03
40 | TCTAGCGAAA | 0.932
41 | TCTAGCGGGA | 0.967
42 | TCTAGGCGTA | 0.98
43 | TCTAGGGGGA | 1.05
44 | TCTAGGTCGA | 0.993
45 | TCTAGGTGTT | 1.37
46 | TCTAGTTAGT | 0.973
47 | TCTATAATTT | 1.04
48 | TCTATAGGGT | 1.07
49 | TCTATCAGAG | 0.99
50 | TCTATCTTCC | 2.15
51 | TCTATGGCTC | 0.945
52 | TCTATGTTGC | 1.01

Row | Sequence | switch fluorescence ratio
53 | TCTATTACC | 0.994
54 | TCTATTTGTT | 0.965
55 | TCTCAAATCG | 0.936
56 | TCTCAAGCCA | 1.2
57 | TCTCAATAGG | 1.02
58 | TCTCAATAGT | 1.07
59 | TCTCACGACT | 1.03
60 | TCTCAGCAAG | 1.61
61 | TCTCAGGCAA | 3.87
62 | TCTCAGTAAA | 0.997
63 | TCTCATCCAT | 1.02
64 | TCTCATCGCG | 1.04
65 | TCTCATGGTA | 1.04
66 | TCTCCCGTTA | 1.21
67 | TCTCCTTTCG | 1.09
68 | TCTCGACAAC | 1.14
69 | TCTCGACGAT | 1.07
70 | TCTCGCGCTT | 1.57
71 | TCTCGGGCAG | 1.28
72 | TCTCGTTACA | 1
73 | TCTCGTTG | 0.991
74 | TCTCGTTGGT | 0.971
75 | TCTCTATAGT | 1.05
76 | TCTCTATTGT | 0.996
77 | TCTGACAGAT | 1.04
78 | TCTGACATGT | 1.02

Row | Sequence | switch fluorescence ratio
79 | TCTGACCAGA | 1.01
80 | TCTGACTGAG | 1
81 | TCTGAGCGTT | 1.01
82 | TCTGATGTCA | 1.03
83 | TCTGCTCTAC | 2.54
84 | TCTGCTTAGT | 0.966
85 | TCTGGAGACG | 1.1
86 | TCTGGCGATT | 1.02
87 | TCTGGGAGCC | 0.98
88 | TCTGGTGAGG | 0.986
89 | TCTGTCAGGC | 1.05
90 | TCTGTTTCGG | 0.95
91 | TCTGTTTGAA | 1.06
92 | TCTTACAACT | 1.01
93 | TCTTAGATTT | 0.961
94 | TCTTAGCGGA | 0.992
95 | TCTTAGGGG | 1.01
96 | TCTTATTACT | 1.05
97 | TCTTCGATTG | 0.928
98 | TCTTCTTGAG | 0.948
99 | TCTTCTTGTC | 0.981
100 | TCTTGAACCT | 1.81
101 | TCTTGAGATT | 0.956

— the supplement of paper PMC10126150
